Reference: paper PMC3931744, “Discovery of Selective Inhibitors of the Clostridium difficile Dehydroquinate Dehydratase” (PLoS ONE, 2014)

Target: seDHQD (type I DHQD) (Salmonella typhimurium, UniProt P58687)
Test: biochemical

Chain of UniProt P58687 (P58687 whole entry): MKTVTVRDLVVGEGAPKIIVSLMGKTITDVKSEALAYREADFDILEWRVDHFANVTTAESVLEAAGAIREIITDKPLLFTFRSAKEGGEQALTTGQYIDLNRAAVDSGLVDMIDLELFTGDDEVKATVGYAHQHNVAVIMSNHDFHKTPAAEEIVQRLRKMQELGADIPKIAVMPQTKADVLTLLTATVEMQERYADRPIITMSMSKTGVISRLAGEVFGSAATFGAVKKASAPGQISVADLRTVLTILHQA

| SMILES | IC50 [µM] |
| --- | --- |
| O=S(=O)(Nc1nc(-c2ccccc2)cs1)c1cc(Cl)ccc1Cl [Compound 1] | > 200 |
| COc1ccc2nc(NS(=O)(=O)c3cc(Cl)ccc3Cl)sc2c1 [Compound 2] | > 200 |
| O=C(O)c1ccccc1NC(=O)c1csc2c1CCCC2 [Compound 3] | > 200 |
